# Source: the supplement of paper PMC8728848
# Some of the results follow.
# Key:
# Test in all cases: glycan array binding signal (z-score within array); higher = stronger binding
# Settings in all cases: glycan notation: IUPAC condensed, linker removed
# Fuc(a1-2)Gal = target: Fuc(a1-2)Gal
# Procedure, shortened: (§1)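 Arrays were curated from the Consortium for Functional Glycomics database, 3228 in total, and kept only where the protein sequence was available. Binding is expressed as a within-array Z-score. This score was averaged across arrays of the same protein sequence at different concentrations or buffers and across linkers, and negative values can be read as non-binding.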
# Fuc(a1-2)Gal(b1-3)GalNAc = target: Fuc(a1-2)Gal(b1-3)GalNAc
# Procedure, shortened: as §1
# [1] = target: Fuc(a1-2)Gal(b1-3)GalNAc(b1-3)Gal
# Procedure, shortened: as §1
# [2] = target: Fuc(a1-2)Gal(b1-3)GalNAc(b1-3)Gal(a1-4)Gal(b1-4)Glc
# Procedure, shortened: as §1
# [3] = target: Fuc(a1-2)Gal(b1-3)GalNAc(b1-4)[Neu5Ac(a2-3)]Gal(b1-4)Glc
# Procedure, shortened: as §1
# Fuc(a1-2)Gal(b1-3)GlcNAc = target: Fuc(a1-2)Gal(b1-3)GlcNAc
# Procedure, shortened: as §1
# [4] = target: Fuc(a1-2)Gal(b1-3)GlcNAc(b1-2)Man(a1-3)[Fuc(a1-2)Gal(b1-3)GlcNAc(b1-2)Man(a1-6)]Man(b1-4)GlcNAc(b1-4)GlcNAc
# Procedure, shortened: as §1
# [5] = target: Fuc(a1-2)Gal(b1-3)GlcNAc(b1-3)Gal(b1-4)Glc
# Procedure, shortened: as §1
# [6] = target: Fuc(a1-2)Gal(b1-3)GlcNAc(b1-3)[Gal(b1-4)[Fuc(a1-3)]GlcNAc(b1-6)]Gal(b1-4)Glc
# Procedure, shortened: as §1
# [7] = target: Fuc(a1-2)Gal(b1-3)[Fuc(a1-4)]GlcNAc
# Procedure, shortened: as §1
# [8] = target: Fuc(a1-2)Gal(b1-3)[Fuc(a1-4)]GlcNAc(b1-2)Man(a1-3)[Fuc(a1-2)Gal(b1-3)[Fuc(a1-4)]GlcNAc(b1-2)Man(a1-6)]Man(b1-4)GlcNAc(b1-4)GlcNAc
# Procedure, shortened: as §1
# Fuc(a1-2)Gal(b1-4)Glc = target: Fuc(a1-2)Gal(b1-4)Glc
# Procedure, shortened: as §1
# Fuc(a1-2)Gal(b1-4)Glc6S = target: Fuc(a1-2)Gal(b1-4)Glc6S
# Procedure, shortened: as §1
# Fuc(a1-2)Gal(b1-4)GlcNAc = target: Fuc(a1-2)Gal(b1-4)GlcNAc
# Procedure, shortened: as §1
# [9] = target: Fuc(a1-2)Gal(b1-4)GlcNAc(b1-2)Man(a1-3)[Fuc(a1-2)Gal(b1-4)GlcNAc(b1-2)Man(a1-6)]Man(b1-4)GlcNAc(b1-4)GlcNAc
# Procedure, shortened: as §1
# [10] = target: Fuc(a1-2)Gal(b1-4)GlcNAc(b1-3)Gal(b1-4)GlcNAc
# Procedure, shortened: as §1
# [11] = target: Fuc(a1-2)Gal(b1-4)GlcNAc(b1-3)Gal(b1-4)GlcNAc(b1-3)Gal(b1-4)GlcNAc
# Procedure, shortened: as §1
# [12] = target: Fuc(a1-2)Gal(b1-4)GlcNAc6S
# Procedure, shortened: as §1
# [13] = target: Fuc(a1-2)Gal(b1-4)[Fuc(a1-3)]GlcNAc
# Procedure, shortened: as §1
# [14] = target: Fuc(a1-2)Gal(b1-4)[Fuc(a1-3)]GlcNAc(b1-2)Man(a1-3)[Fuc(a1-2)Gal(b1-4)[Fuc(a1-3)]GlcNAc(b1-2)Man(a1-6)]Man(b1-4)GlcNAc(b1-4)GlcNAc
# Procedure, shortened: as §1
# [15] = target: Fuc(a1-2)Gal(b1-4)[Fuc(a1-3)]GlcNAc(b1-3)Gal(b1-4)[Fuc(a1-3)]GlcNAc
# Procedure, shortened: as §1
# [16] = target: Fuc(a1-2)Gal(b1-4)[Fuc(a1-3)]GlcNAc(b1-3)Gal(b1-4)[Fuc(a1-3)]GlcNAc(b1-3)Gal(b1-4)[Fuc(a1-3)]GlcNAc
# Procedure, shortened: as §1
# Fuc(a1-2)Gal6S(b1-4)Glc = target: Fuc(a1-2)Gal6S(b1-4)Glc
# Procedure, shortened: as §1
# [17] = target: Fuc(a1-2)Gal6S(b1-4)Glc6S
# Procedure, shortened: as §1
# [18] = target: Fuc(a1-2)Gal6S(b1-4)GlcNAc
# Procedure, shortened: as §1
# Fuc(a1-2)[Gal(a1-3)]Gal = target: Fuc(a1-2)[Gal(a1-3)]Gal
# Procedure, shortened: as §1
# [19] = target: Fuc(a1-2)[Gal(a1-3)]Gal(b1-3)GlcNAc
# Procedure, shortened: as §1
# [20] = target: Fuc(a1-2)[Gal(a1-3)]Gal(b1-3)GlcNAc(b1-2)Man(a1-3)[Fuc(a1-2)[Gal(a1-3)]Gal(b1-3)GlcNAc(b1-2)Man(a1-6)]Man(b1-4)GlcNAc(b1-4)GlcNAc
# Procedure, shortened: as §1
# [21] = target: Fuc(a1-2)[Gal(a1-3)]Gal(b1-4)Glc
# Procedure, shortened: as §1
# [22] = target: Fuc(a1-2)[Gal(a1-3)]Gal(b1-4)GlcNAc
# Procedure, shortened: as §1
binder,measurement,setting,value
"Flo5 (Saccharomyces cerevisiae), P38894 (protein) MGSSHHHHHHSSGLVPRGSHMSGATEACLPAGQRKSGMNINFYQYSLKDSSTYSNAAYMAYGYASKTKLGSVGGQTDISIDYNIPCVSSSGTFPCPQEDSYGNWGCKGMGACSNSQGIAYWSTDLFGFYTTPTNVTLEMTGYFLPPQTGSYTFSFATVDDSAILSVGGSIAFECCAQEQPPITSTNFTINGIKPWDGSLPDNITGTVYMYAGYYYPLKVVYSNAVSWGTLPISVELPDGTTVSDNFEGYVYSFDDDLSQSNCTIPDPSIH",glycan array binding signal (z-score),Fuc(a1-2)Gal,-0.201
same,glycan array binding signal (z-score),Fuc(a1-2)Gal(b1-3)GalNAc,-0.065
same,glycan array binding signal (z-score),[1],1.59
same,glycan array binding signal (z-score),[2],-0.27
same,glycan array binding signal (z-score),[3],-0.16
same,glycan array binding signal (z-score),Fuc(a1-2)Gal(b1-3)GlcNAc,-0.206
same,glycan array binding signal (z-score),[4],-0.07
same,glycan array binding signal (z-score),[5],0.011
same,glycan array binding signal (z-score),[6],-0.153
same,glycan array binding signal (z-score),[7],-0.173
same,glycan array binding signal (z-score),[8],0.231
same,glycan array binding signal (z-score),Fuc(a1-2)Gal(b1-4)Glc,1.59
same,glycan array binding signal (z-score),Fuc(a1-2)Gal(b1-4)Glc6S,0.004
same,glycan array binding signal (z-score),Fuc(a1-2)Gal(b1-4)GlcNAc,-0.044
same,glycan array binding signal (z-score),[9],-0.157
same,glycan array binding signal (z-score),[10],-0.163
same,glycan array binding signal (z-score),[11],-0.14
same,glycan array binding signal (z-score),[12],-0.193
same,glycan array binding signal (z-score),[13],-0.131
same,glycan array binding signal (z-score),[14],-0.084
same,glycan array binding signal (z-score),[15],-0.205
same,glycan array binding signal (z-score),[16],-0.118
same,glycan array binding signal (z-score),Fuc(a1-2)Gal6S(b1-4)Glc,-0.179
same,glycan array binding signal (z-score),[17],-0.048
same,glycan array binding signal (z-score),[18],-0.11
same,glycan array binding signal (z-score),Fuc(a1-2)[Gal(a1-3)]Gal,0.609
same,glycan array binding signal (z-score),[19],-0.162
same,glycan array binding signal (z-score),[20],0.739
same,glycan array binding signal (z-score),[21],-0.07
same,glycan array binding signal (z-score),[22],-0.112
